# Source: PubChem BioAssay AID1745853 (National Center for Advancing Translational Sciences (NCATS), 2022)
# Where “and” joins values, the source holds several entries; their conditions need not be identical. Equal entries are not always repeated. Some of the results follow. The main result of the screen is listed elsewhere. These columns were measured beside it and carry no call.
# Assays:
# Experiment in all cases: Primary Screen for Target Class Profiling of Small Molecule Inhibitors of Methyltransferases
# [1] = biological target: Glycine N-methyltransferase (Homo sapiens) (UniProt Q14749); conditions: purified enzyme, MTase-Glo SAH luminescence; measured here: GNMT inhibition; at 40 µM; stronger effect = lower value
# Outline: (§1)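 Each enzyme was reacted with SAM and its substrate, with compounds tested once at 40 uM; SAH formed was read by MTase-Glo luminescence.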
# [2] = biological target: Guanidinoacetate N-methyltransferase (Homo sapiens) (UniProt Q14353); conditions: purified enzyme, MTase-Glo SAH luminescence; measured here: GAMT inhibition; at 40 µM; stronger effect = lower value
# Outline: as §1
# [3] = biological target: Histamine N-methyltransferase (Homo sapiens) (UniProt P50135); conditions: purified enzyme, MTase-Glo SAH luminescence; measured here: HNMT inhibition; at 40 µM; stronger effect = lower value
# Outline: as §1
# [4] = biological target: Nicotinamide N-methyltransferase (Homo sapiens) (UniProt P40261); conditions: purified enzyme, MTase-Glo SAH luminescence; measured here: NNMT inhibition; at 40 µM; stronger effect = lower value
# Outline: as §1
# [5] = biological target: Phenylethanolamine N-methyltransferase (Homo sapiens) (UniProt P11086); conditions: purified enzyme, MTase-Glo SAH luminescence; measured here: PNMT inhibition; at 40 µM; stronger effect = lower value
# Outline: as §1
# % is scaled to controls: 0 for no effect and ±100 for the full control effect.
Compound,"activity change, negative = inhibition [1]","activity change, negative = inhibition [2]","activity change, negative = inhibition [3]","activity change, negative = inhibition [4]","activity change, negative = inhibition [5]"
CNC(=O)[C@H]1O[C@@H](n2cnc3c(NCc4ccc(N)c(I)c4)ncnc32)[C@H](O)[C@@H]1O,0.66%,0.562%,7.94%,-4.41%,4.29%
COc1ccc(C[C@H](NC(=O)[C@H](C)NC(=O)CN2CCOCC2)C(=O)N[C@@H](Cc2ccccc2)C(=O)[C@@]2(C)CO2)cc1,–,-7.64%,–,-15.2%,2.15%
COC(=O)[C@H]1CN(C(=O)NC(C)C)CCN1C(=O)c1cccnc1,-5.54%,-11.4%,-2.26%,-7.14%,-1.84%
CC1(C)C2CC=C(COC3OC(COC4OCC(O)(CO)C4O)C(O)C(O)C3O)C1C2 (stereo unspecified),0%,-4.28%,0.148%,-14.5%,2.61%
CC1CCC(NC(=O)C2(C)Cn3c(cc4occc43)C(=O)N2Cc2cccs2)CC1 (stereo unspecified),-5.48%,4.5%,0.458%,-7.36%,-4.1%
COc1ccc(-c2cc3n(n2)CC(C)(C(=O)NCc2ccccc2)N(c2ccc(Cl)cc2)C3=O)cc1 (stereo unspecified),1.06%,4.67%,4.78%,2.06%,-1.74%
OC1CCC(Nc2ncc3nc(Nc4c(F)cc(F)cc4F)n([C@H]4CCOC4)c3n2)CC1 (stereo partly specified),-2.08%,-7.65%,7.18%,-22.7%,-1.53%
O=C(CCc1c[nH]c2ccccc12)NC1CCc2n[nH]c(=O)n2CC1 (stereo unspecified),-2.03%,-3.36%,0.183%,-5.46%,-6.73%
CCN1C(=O)Cc2ccccc2C1C(=O)N(C)Cc1ccco1 (stereo unspecified),-12%,-6.36%,-3.45%,-13.1%,-12.2%
Cc1ccc(Cn2c(=O)c3ccccc3n3c(CCC(=O)N4CCN(C5CCCCC5)CC4)nnc23)cc1,-8.87%,4.84%,-4.66%,5.77%,-5.3%
Cc1ccccc1-c1nc(Cn2ccnc2C(C)C)c(C)o1,-9.43%,-13.1%,-18.6%,-21%,-10.1%
CCCN1C(=O)c2c(-n3cccc3)c3cc(C)ccc3n2CC1(C)C(=O)NC1CCCC1 (stereo unspecified),-7.95%,3.49%,-7.01%,-20.7%,-4.71%
O=S(=O)(c1cccnc1)N1CC(F)(F)C[C@H]1c1nc(C2CC2)no1,0.704%,0.544%,4.06%,-2.98%,-1.16%
Cc1ccccc1CNC(=O)C1(C)Cc2ccccc2C(=O)N1Cc1ccc(C(F)(F)F)cc1 (stereo unspecified),13.8%,3.33%,9.69%,7.49%,9.1%
C=CC(=O)Nc1cccc(CN2C(=O)N(c3c(Cl)c(OC)cc(OC)c3Cl)Cc3cnc(NCCCCN(CC)CC)nc32)c1,-31.3%,-5.87%,-83.7%,-23.8%,-4.14%
Cc1c(NC(=O)OC[C@@H]2COCCN2)cn2ncnc(Nc3ccc4c(cnn4Cc4cccc(F)c4)c3)c12,-7.85% and -24%,16.9% and 23.2%,-1.87% and -10.9%,-20.2% and -37.1% and -13.5%,4.07% and -0.878% and -3.26%
COc1cccc(C(=O)N2CC3(Cc4ccccc4CN3[S+](C)(=O)[O-])C2)c1,-7.42%,-6.38%,-1.13%,-12.5%,-7.69%
CC(=O)Nc1c2n(c3ccccc13)CC(C)(C(=O)NC1CCCC1)N(CCC1=CCCCC1)C2=O (stereo unspecified),-5.87%,0.577%,-5.21%,-4.7%,-0.815%
O=C(c1ccc(-c2ccc(Cl)cc2)o1)N(Cc1ccccn1)c1ccc(N2CCNCC2)cc1,–,15.1%,–,-25.1%,1.65%
CC1(C)C(=O)N(CC2CCOCC2)[C@H]2CN(Cc3cccnc3N)C[C@H]2[S+]1(=O)[O-],-1.93%,-0.249%,-1.43%,0.802%,-1.24%

Compound,"activity change, negative = inhibition [1]","activity change, negative = inhibition [2]","activity change, negative = inhibition [3]","activity change, negative = inhibition [4]","activity change, negative = inhibition [5]"
Cc1ccc(Cn2c(=O)c3ccc(C(=O)NC(C)C)cc3n3c(SCC(=O)NC(C)C)nnc23)cc1,6.46%,0%,10.4%,-6.05%,1.59%
O=C1CN(Cc2ccc(Br)cc2)S(=O)(=O)c2ccccc2N1Cc1cccc(F)c1,-2.54%,1.2%,-4.63%,-7.19%,-7.82%
CCOc1ccc(N(C(=O)c2cccnc2)S(=O)(=O)c2ccc3c(c2)n(C)c(=O)n3C)cc1,-1.97%,0.77%,2.8%,-5.44%,-3.7%
CC1(C(=O)NC2CCCCCC2)Cn2c(cc3ccccc32)C(=O)N1Cc1cccnc1 (stereo unspecified),6.11%,1.31%,8.36%,2.93%,3.29%
O=c1cc(N2CCOCC2)oc2c(Nc3ccccc3)nccc12,-12.5%,-15.8%,-14.1%,-44.2%,-16.2%
CN1C(=O)c2cc(C(=O)NCCCN3CCCC3)nn2CC1(C)C(=O)NCc1ccccc1 (stereo unspecified),6.43%,0%,6.55%,10.2%,6.46%
C[C@@H](c1ccccc1)N(C(N)=NC#N)c1cccc2ncccc12,6.24%,2.81%,11.4%,-6.53%,5.85%
O=C1CC2CCN(Cc3coc(-c4ccccc4)n3)CC2CCN1 (stereo unspecified),-3.39%,-0.689%,-3.31%,-0.309%,-5.43%
Cn1c(COc2cccc(CN3CCCC3)c2Cl)nnc1C1CC(N)C1 (stereo unspecified),-8.27%,-5.44%,-71.9%,-10.7%,-3.55%
CC(C)CNC(=O)c1ccc2c(=O)n(Cc3ccccc3)c3nn(CC(=O)c4ccccc4)c(=O)n3c2c1,0.662%,6.23%,7.7%,1.42%,2.85%
COC(=O)c1ncn2c1C(=O)N(c1ccc(OC)c(Cl)c1)C(C)(C(=O)NC1CCCC1)C2 (stereo unspecified),-1.12%,7.48%,-5.21%,-5.24%,-3.46%
COc1ccc(-c2cc3n(n2)CC(C)(C(=O)NCc2ccccc2OC)N(CCC2=CCCCC2)C3=O)cc1 (stereo unspecified),-1.72%,2.92%,-2.34%,-6.57%,-19.8%
COc1nc2sc(C(=O)NC3CC3)c(N)c2c(C)c1Cl,-11.5%,2.45%,-3.78%,-15.5%,-2.57%
COc1c(-c2ccc(O)cc2)cc(OC)c2c1oc1cc(O)c(OC3OC(CO)C(O)C3O)cc12 (stereo unspecified),-10.3%,-6.11%,-19.4%,-16%,-1.41%
C=C1CC[C@H](O)CC1=C/C=C1\CCC[C@]2(C)[C@@H]([C@H](C)/C=C/[C@H](C)C(C)C)CC[C@@H]12,-12.2%,9.44%,8.73%,-11.2%,1.57%
CCOC(=O)c1cc2n(n1)CC(C)(C(=O)NC1CCCCC1)N(c1cc(Cl)ccc1OC)C2=O (stereo unspecified),0.017%,0%,-3.8%,3.03%,1.49%
CCc1cccc2c(C(CC(=O)N3CCCCC3)c3cccc(OC)c3)c[nH]c12 (stereo unspecified),-7.62%,-16.2%,-5.86%,-23.5%,-10.7%
O=C(N[C@@H]1CCOC[C@H]1Oc1cccc(F)c1)c1cnc2ccccn2c1=O,-8.33%,-9.6%,-4.37%,-17.6%,-10.3%
CN1C(=O)c2cc(NC(=O)c3ccccc3Cl)ccc2N2CCN=C12,1.55%,0%,8.07%,-0.993%,5.49%
O=C(NC1CCN(c2nc3ncccc3o2)C1)c1ccccc1F (stereo unspecified),-5.8%,-12.8%,-5.48%,-22.6%,-10.6%

Compound,"activity change, negative = inhibition [1]","activity change, negative = inhibition [2]","activity change, negative = inhibition [3]","activity change, negative = inhibition [4]","activity change, negative = inhibition [5]"
CC(C)CCn1c(=O)c2ccccc2n2c(SCC(=O)NCc3ccccc3)nnc12,3.72%,-5.53%,9.96%,0.274%,4.05%
Cn1c(=O)c(-c2c(Cl)cccc2Cl)cc2cnc(Nc3cccc(C(=O)O)c3)nc21,2.62%,7.36%,10.2%,-10.5%,5.17%
CC(/C=C/C1(O)C2(C)COC1(C)CC(=O)C2)O[C@@H]1O[C@H](CO)[C@@H](O)[C@H](O)[C@H]1O (stereo partly specified),4.81%,4%,10.7%,-6.42%,5.18%
CC1(C(=O)NCc2ccccc2)Cn2c(ccc2-c2ccco2)C(=O)N1Cc1ccc(Cl)cc1 (stereo unspecified),2.33%,0%,6.21%,2.06%,0.925%
CNC(=O)c1ccccc1Nc1nc(Nc2ccc3c(c2OC)CCCC(N2CCN(CCO)CC2)C3)ncc1Cl (stereo unspecified),-27.2%,–,-53.1%,–,–
O=C(NC1CCc2n[nH]c(=O)n2CC1)c1ccc(Cn2ccnc2)o1 (stereo unspecified),-1.62%,-4.85%,-1.3%,-0.303%,2.25%
CCCCN1C(=O)CC[C@H]2CN(C(=O)CCn3cccc3)CC[C@H]21,-4.79%,-8.08%,-2.06%,-10%,-7.24%
CNC(=O)N1CCC(C2CCN(C(=O)c3cnccc3C)C2)CC1 (stereo unspecified),-2.39%,-2.4%,0.105%,0.402%,7.62%
O=C(CCc1nnc2n(CCc3ccccc3)c(=O)c3ccccc3n12)N1CC=C(c2ccccc2)CC1,-6.42%,3.66%,-4.14%,-5.9%,-5.77%
CCN(CC)C(=O)[C@@H]1C[C@@H](n2cc(Cn3c(C)nc4ccccc43)nn2)CN1,-5.75%,-7.66%,-2.33%,-10.6%,-4.66%
Cc1noc(C)c1-c1cc2cc(CO)oc2c(-c2ccc([S+](C)(=O)[O-])cc2)n1,-14.7%,-5.43%,-9.89%,-15%,-3.85%
CC1C/C=C/C=C\CCCCC(O)C/C=C/C(=O)O1 (stereo unspecified),0.004%,1.62%,7.68%,-14.7%,-9.29%
O=C1NC(=O)c2cc(Nc3ccc(F)cc3)c(Nc3ccc(F)cc3)cc21,–,-12.3%,–,-29.2%,-14.8%
CCc1noc(-c2cn(C3CCN(C(=O)C4(c5ccccc5)CC4)C3)nn2)n1 (stereo unspecified),-3.81%,-0.395%,0.989%,-4.78%,-0.508%
COc1cccc(NC(=O)CCc2nnc3n(Cc4ccccc4)c(=O)c4ccccc4n23)c1,0.314%,0%,6.59%,5.05%,2.6%
NC(=O)C1(N2CCCCC2)CCN(c2nccc(-c3ccncc3)n2)CC1,-9.27%,-6.63%,-7.81%,-9.41%,-4.1%
COc1ccc([C@@H]2Sc3ccccc3N(CCN(C)C)C(=O)[C@@H]2OC(C)=O)cc1,8.83%,0.059% and 5.49%,15.8%,-13.6% and -9.56%,-0.383% and 2.88%
CC1OC(OC2CCC3(C)C(CCC4(C)C3CC=C3C5CC(C)(C)CCC5(C(=O)OC5OC(CO)C(O)C(O)C5O)CCC34C(=O)O)C2(C)C)C(O)C(O)C1O (stereo unspecified),5.95%,4.78%,1.81%,-8.61%,6.29%
COc1ccc(N2C(=O)c3cc4ccc(OC)cc4n3CC2(C)C(=O)NC2CCCCC2)c(OC)c1 (stereo unspecified),-11%,4.41%,-1.27%,-24.3%,-1.36%
